Measured values: patent publication US20260103438A1, “PROBES AND METHODS TO IDENTIFY LIGANDABLE FATTY ACYLATION SITES FOR THERAPEUTIC TARGET IDENTIFICATION” (The General Hospital Corporation, priority 2022, published 2026)

Legend:
IDH1 R132H [1] = target: T1, IDH1 R132H (Homo sapiens, UniProt O75874, R132H); test: Competition of in vitro Compound B4 labeling of recombinant IDH1 R132H by pretreatment with compound; format: binding; conditions: pretreatment 30 mins, in vitro (FIG. 7A)
T1 construct: expressed in transfected cells; host or cells: HEK293A
Description: For in vitro treatment, the recombinant proteins were pretreated with compounds at indicated concentrations for 30 mins, followed by the labeling experiments. For in-cell treatment, HEK293A cells were pretreated with compounds under indicated concentrations for 8 h and then labeled with covalent probes for another 16 h. The structure of Compound C20 is shown below.

IDH1 mt (IDH1R132H) = target: T2, IDH1 mt (IDH1R132H) (Homo sapiens, UniProt O75874, R132H); test: Auto-palmitoylation of recombinant IDH1 mt with Alkyne Palmitoyl-CoA (western blot); format: biochemical; conditions: indicated concentrations, 30 mins (FIG. 6D)
T2 construct: purchased Cayman 14132

IDH1 R132H C269S = target: T3, IDH1 R132H C269S (Homo sapiens, UniProt O75874, C269S/R132H); test: Labeling of IDH1 R132H C269S mutant by Compound B4; format: binding; conditions: C269S mutant (FIG. 7B)
T3 construct: HA; expressed in transfected cells; host or cells: HEK293A
Description: (§1) For in-cell labeling, HEK293A cells with or without overexpression of proteins of interest were starved in DMEM medium with 10% dialyzed fetal bovine serum (DFBS) for 1 h and labeled using the covalent probes (10 μM) overnight. The cells were then washed and harvested using cold DPBS (14190250, Life Technologies). The cell pellets were isolated by centrifugation (500×g, 10 min) and lysed by TEA lysis buffer (50 mM TEA-HCl, pH 7.4, 150 mM NaCl, 1% Triton X-100, 0.2% SDS, 1×Protease inhibitor-EDTA free cocktail (05892791001, Roche), phosphatase inhibitor cocktail (P0044, Sigma-Aldrich)) on ice for 30 mins. The protein concentration was determined using Bio-Rad assay and adjusted to 1 mg/mL. For lysate labeling, HEK293A cells were grown in DMEM with 10% FBS. When confluence reached ˜90%, the cells were washed and harvested by cold DPBS. […] The protein concentration is determined using Bio-Rad assay and adjusted to 1 mg/mL. […]
(§2) 100 μL of labeled proteome was treated with 10 μL of freshly prepared “click” mixture containing 1 mM TBTA, 10 mM TCEP, 10 mM CuSO4, 1 mM Biotin-Azide and incubated for 1 h at room temperature. […] The bound proteins were eluted with a buffer containing 10 mM EDTA (pH 8.2) and 95% formamide and analyzed with SDS-PAGE. […]

IDH1 R132H [2] = target: T1, IDH1 R132H; test: Labeling of IDH1 R132H by Compound B4; format: binding; conditions: FIG. 7A, 7B
Description: as §1, §2

IDH1mutant (mt) = target: T4, IDH1mutant (mt) (Homo sapiens, UniProt O75874, R132H); test: Inhibition of palmitoylation of IDH1mt by compound treatment; format: cell-based; conditions: 1 μM (FIG. 7C)
T4 construct: expressed in transfected cells; host or cells: HEK293A
Description: as §1, §2

IDH1mtC269S = target: T5, IDH1mtC269S (Homo sapiens, UniProt O75874, C269S/R132H); test: Inhibition of palmitoylation of IDH1mtC269S by compound treatment; format: cell-based; conditions: 1 μM (FIG. 7C)
T5 construct: HA; expressed in transfected cells; host or cells: HEK293A
Description: as §1, §2

Structure (SMILES): O=C(CCl)N1CCC(C(O)(c2ccccc2)c2ccccc2)CC1 [Compound C20]
- effect on in vitro labeling of recombinant IDH1 R132H with Compound B4 (IDH1 R132H [1]): suppressed

Structure (SMILES): C#CCCCCCCCCCCCCCC(=O)SCCNC(=O)CCNC(=O)[C@H](O)C(C)(C)COP(=O)(O)OP(=O)(O)OC[C@H]1O[C@@H](n2cnc3c(N)ncnc32)[C@H](O)[C@@H]1OP(=O)(O)O [Alkyne Palmitoyl-CoA]
- auto-palmitoylation (labeling) of IDH1 somatic mutation version (IDH1 mt (IDH1R132H)): strong auto-palmitoylation activities

Structure (SMILES): C#CCCCCCCCCCCCCNC(=O)CBr [Compound B4, 2-bromo-N-(tetradec-13-yn-1-yl)acetamide]
- effect of mutation of cysteine 269 to serine on labeling of IDH1 R132H by the probe (IDH1 R132H C269S): dramatically abolished labeling
- site of labeling in IDH1mt (IDH1 R132H [2]): selectively labeled Cysteine 269 of IDH1mt

Structure (SMILES): C=CC(=O)N1CCN([C@@H](CC2CC2)c2ccc([C@H](C)Nc3ncc4c(n3)N(CC)C(=O)OC4)cc2)CC1 [LY3410738]
- effect on palmitoylation of IDH1mt (IDH1mutant (mt)): inhibited palmitoylation
- effect on palmitoylation of IDH1mtC269S (IDH1mtC269S): but not
